Measurements published in PMC4336329 (PLoS ONE, 2015).
In all, about 310,000 compounds went through this assay and about 2,200 (0.71%) showed an effect of 50% or more. The effect is printed as a negative number. The list shows a part of the results.

These compounds were tested against human ether-à-go-go-related gene (hERG) potassium channel (human, UniProt Q12809) (assay: primary screen, population patch clamp on CHO cells stably expressing hERG).
Sequence of human ether-à-go-go-related gene (hERG) potassium channel (Q12809 whole entry, looked up): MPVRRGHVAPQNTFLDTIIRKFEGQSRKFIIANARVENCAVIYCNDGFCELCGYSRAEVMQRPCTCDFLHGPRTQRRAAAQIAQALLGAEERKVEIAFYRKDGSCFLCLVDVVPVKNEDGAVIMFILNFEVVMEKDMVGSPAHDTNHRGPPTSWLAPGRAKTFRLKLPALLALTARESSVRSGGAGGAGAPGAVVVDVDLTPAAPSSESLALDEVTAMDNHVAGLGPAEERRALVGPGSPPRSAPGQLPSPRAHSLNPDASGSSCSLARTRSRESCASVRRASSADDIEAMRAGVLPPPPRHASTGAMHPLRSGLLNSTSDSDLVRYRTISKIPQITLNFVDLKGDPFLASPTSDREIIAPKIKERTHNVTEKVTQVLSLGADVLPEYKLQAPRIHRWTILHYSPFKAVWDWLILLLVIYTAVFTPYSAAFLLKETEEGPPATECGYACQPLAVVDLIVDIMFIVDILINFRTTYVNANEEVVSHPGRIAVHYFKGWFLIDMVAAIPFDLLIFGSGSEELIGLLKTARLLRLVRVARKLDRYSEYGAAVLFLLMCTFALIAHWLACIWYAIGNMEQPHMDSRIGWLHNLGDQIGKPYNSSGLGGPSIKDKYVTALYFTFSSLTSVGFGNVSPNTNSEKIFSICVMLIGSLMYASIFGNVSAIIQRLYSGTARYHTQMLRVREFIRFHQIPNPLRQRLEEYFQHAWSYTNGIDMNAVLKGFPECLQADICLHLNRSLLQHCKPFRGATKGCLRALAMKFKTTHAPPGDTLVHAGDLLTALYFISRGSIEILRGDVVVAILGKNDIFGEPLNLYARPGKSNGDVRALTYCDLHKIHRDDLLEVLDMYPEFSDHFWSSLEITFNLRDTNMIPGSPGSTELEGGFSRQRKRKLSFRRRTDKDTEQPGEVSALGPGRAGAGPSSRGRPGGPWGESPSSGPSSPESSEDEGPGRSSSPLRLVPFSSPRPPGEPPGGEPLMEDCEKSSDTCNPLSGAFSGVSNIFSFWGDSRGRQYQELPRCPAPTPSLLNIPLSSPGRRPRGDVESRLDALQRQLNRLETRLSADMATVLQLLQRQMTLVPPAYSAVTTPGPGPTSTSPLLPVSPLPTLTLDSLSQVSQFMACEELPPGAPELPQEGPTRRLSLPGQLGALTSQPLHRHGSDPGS

Structure (SMILES)	hERG current change (%, negative = inhibition) at 1uM
CC1CCCCN1c1nnc(N)s1 (centres unmarked)	7.66%
O=c1[nH]c(N2CCN(Cc3ccc4c(c3)OCO4)CC2)nc2c1CCCC2	11.9%
O=c1c(C=NCCN2CCNCC2)c(O)n(C2CCCCC2)c(=O)n1C1CCCCC1	-13.1%
Nc1c(N2CCOCC2)cc(Cl)c2nonc12	-29.9%
COc1ccc(NS(=O)(=O)c2cc(NC(=O)[C@@H](NC(N)=O)C(C)C)ccc2C)cc1	15.4%
CN1CCN(S(=O)(=O)c2ccc(C#N)cc2)C(c2ccccc2)C1.Cl (centres unmarked)	1.09%
O=C(NNC(=O)c1ccc[nH]1)Nc1cccc(C(F)(F)F)c1	16.9%
COc1ccc([C@H]2CC(=O)C=C(c3ccc(Cl)c(F)c3)C2)cc1	12.7%
O=C1CN(C(=O)/C=C/c2cc(Br)ccc2F)CCN1	10.7%
COc1cccc(N(CC(=O)O)S(=O)(=O)c2ccccc2)c1	6.43%
COC(=O)C1=CN(Cc2ccc(OC)cc2)C=C(C(=O)OC)C1c1ccc(O)c(OC)c1	16.5%
COC(=O)c1cc(S(=O)(=O)NCC2CCN(CCc3ccc(OC)cc3)CC2)c[nH]1	-23.4%
CC(C)(C)c1ccc(C(=O)NC(=S)NNC(=O)COc2ccccc2)cc1	16.8%
CC1CC(C)(C)NCCNC(C)CC(C)(C)NCCN1 (centres unmarked)	0.686%
CCOC(=O)C(NC(=O)CC(C)C)(Nc1cc(C)on1)C(F)(F)F (centres unmarked)	-0.624%
O=C(O)c1ccc2c(c1)S(=O)(=O)c1ccccc1C2=O	11.3%
CCCCCn1c(N2CCC(C(N)=O)CC2)nc2c1c(=O)[nH]c(=O)n2C	7.56%
Cc1cc(Cl)ccc1NC(=O)COC(=O)c1cc([N+](=O)[O-])ccc1N1CCOCC1	-17.5%
O=C(CSc1nnc(Nc2ccccc2)s1)NCc1ccco1	1.01%
Cc1nnc(SCc2nnc(-c3ccc(Cl)cc3)o2)n1-c1ccccc1	-9.9%
N#Cc1ccc(COC(=O)c2cccnc2Cl)cc1	-18.1%
CCC/C(O)=C1\C(=O)CC(c2ccccc2)CC1=NCCc1c(C)[nH]c2ccccc12 (centres unmarked)	-13.5%
CCCCC(NC(C)=O)c1nc2ccccc2[nH]1 (centres unmarked)	18.1%

Structure (SMILES)	hERG current change (%, negative = inhibition) at 1uM
O=C(Nc1cccc2cccnc12)c1ccc(Cl)cc1	11.8%
Cc1cccc(C(=O)N2CCN(C(=O)c3cccc(C)c3)C(C)C2)c1 (centres unmarked)	9.14%
Cn1c(Cl)c(/C=N/OC(=O)C2CC2)c2ccccc21	12.4%
Cc1cc(C(=O)Nn2cnnc2)cs1	7.74%
COC(=NC(C)C)NC(C)C	12%
O=C(NCC1CCCC(CNC(=O)Nc2ccc(Cl)cn2)C1)Nc1ccc(Cl)cn1 (centres unmarked)	7.34%
CC(C)(C#N)Nc1ccccc1	12.9%
COC(=O)c1nccc2c1[nH]c1ccccc12	12.4%
COC(=O)CN(c1c(C)cccc1C)S(C)(=O)=O	0.347%
O=C(COC(=O)COc1ccc(Cl)cc1Br)NC1CCCCCC1	3.14%
CC1(C)C2CCC1(C)C1(C2)NC(=O)c2ccccc2O1 (centres unmarked)	1.79%
Cc1cc(Cl)c(OCCCNCc2ccccc2)c(Br)c1.O=C(O)C(=O)O	-5.37%
CCOC(=O)C1C(=O)CC(C)(O)C(C(=O)OCC)C1c1ccc(OC)cc1 (centres unmarked)	-0.912%
O=C1CCCC2=C1Sc1ccc(Cl)cc1N2	11.7%
COc1ccc2c(c1)CCc1c(C(=O)Nc3cc(C)n(Cc4ccc(Cl)cc4)n3)noc1-2	-13.9%
O=C(COC(=O)/C=C/c1ccc(C(F)(F)F)cc1)NCC1CCCO1 (centres unmarked)	16.4%
N#Cc1ccc(C(=O)Nc2nnc(-c3ccccn3)o2)cc1	8.13%
CCOC(=O)c1oc2ccccc2c1CN1CCN(C)CC1.Cl	-50.2%
COc1cc(NC(=O)COC(=O)/C=C/c2ccc(Cl)cc2Cl)cc(OC)c1	10.4%
COc1cccc(-n2nnnc2SCC(=O)Nc2ccccc2OC)c1	1.56%
CCOC(=O)N1CCN(C(=O)c2oc3ccc(S(=O)(=O)N4CCCCCC4)cc3c2C)CC1	-2%
Cc1ccc(-n2c(SCC(=O)Nc3ccc4cn[nH]c4c3)nnc2-c2ccco2)cc1	2.41%
Cc1cc(=O)oc2cc(OCC(=O)OCC(=O)N3CCc4ccccc43)ccc12	2.83%

Structure (SMILES)	hERG current change (%, negative = inhibition) at 1uM
O=C(COC(=O)c1cc2c(s1)CCCCC2)NC1CCS(=O)(=O)C1 (centres unmarked)	14.2%
CCOc1ccccc1C(C(=O)NC1CCCCC1)N(C(=O)c1csnn1)C1CC1 (centres unmarked)	-4.46%
CCOC(=O)C1(Cc2ccccc2C)CCCN(C(=O)c2ccnn2C)C1 (centres unmarked)	7.07%
COc1ccc(N=Cc2c(O)n(-c3cccc(C)n3)c(=O)c3ccccc23)cc1	0.0617%
CCc1n[nH]c(=S)n1/N=C/c1ccccn1	11.1%
Cc1c(-c2ccc(/C=N/NC(=O)C(=O)Nc3ccccc3F)o2)cccc1[N+](=O)[O-]	13.7%
CCS(=O)(=O)n1nc(-c2ccccc2)nc1SCc1ccccc1	12.7%
O=C(c1ccco1)N1CCCC(Nc2ccc3c(c2)OCCO3)C1 (centres unmarked)	12.6%
CC(C)(C)c1ccc(S(=O)(=O)C(C)(C)C)cc1	11.8%
COc1ccc(/C=N/NC(=O)c2ccc(N(C)S(=O)(=O)c3ccccc3)cc2)cc1OC	18%
CCCC(=O)Nc1cc(OC)c(C(=O)OC)cc1Cl	10.2%
COC(=O)c1cc(OC)c(OC)c(OC)c1[N+](=O)[O-]	-5.53%
COc1ccccc1NS(=O)(=O)c1cccs1	7.98%
COc1ccc(/C=N/N=C2/NC(=O)CC(C(=O)O)S2)cc1 (centres unmarked)	13.7%
COc1ccc(CCNC(=O)C2CCN(S(=O)(=O)c3ccc(-n4cnnn4)cc3)CC2)cc1OC	-0.826%
Cc1ccccc1-c1cc(C(=O)Nc2sc(C(=O)OC(C)C)c(C)c2C#N)c2ccccc2n1	15.6%
O=C(C1CCN(S(=O)(=O)c2cccc3nsnc23)CC1)N1CC=C(c2ccccc2)CC1	12%
O=C(Cc1c(Cl)cccc1Cl)NC1=NCCS1	9.14%
CN(Cc1ccncn1)C(=O)C1CCC(=O)N(Cc2cccc(C(F)(F)F)c2)C1 (centres unmarked)	12.3%
CC1CCN(c2c([N+](=O)[O-])c(=O)oc3ccccc23)CC1	6.58%
CCOC(=O)c1sc(-c2ccc(C)cc2)c(C#N)c1C	15.7%
CCc1nc(NC(C)C)c2oc3ccccc3c2n1.Cl	13.2%
Cc1ccc(OC(C)c2nnc(N)s2)cc1Cl (centres unmarked)	5.17%

Structure (SMILES)	hERG current change (%, negative = inhibition) at 1uM
CCc1ccc(Cn2nnc(C(=O)Nc3ccc(OC)cc3OC)c2N)cc1	10.3%
O=C(CCCSc1nnc(Nc2ccccc2F)s1)N1CCOCC1	12.9%
O=S(=O)(Nc1ccc2c(c1)OCCO2)c1cccc2cccnc12	-7.42%
O=C(CSc1nc(=O)n(CCCN2CCOCC2)c2c1CCCC2)Nc1ccc(Cl)cc1	-48.1%
CCCC(C)C(=O)NCc1ccccc1OC (centres unmarked)	13.7%
O=C(CCN1CCN(C/C=C/c2ccccc2)CC1)Nc1cccc(F)c1	-62.6%
Cc1ccc(CNC(=O)C(CC(C)C)OC(=O)c2ccco2)cc1 (centres unmarked)	15.2%
CCOC(=O)C1CCCN(C(=O)CSc2nc(C)cc(C)n2)C1 (centres unmarked)	16.9%
CN(C)C(CNC(=S)Nc1ccc(F)cc1)c1cccnc1 (centres unmarked)	11.9%
C(=N\N=C\c1cccnc1)/c1cccnc1	3.67%
COc1cc(/C(C#N)=C/c2ccccc2)c([N+](=O)[O-])cc1OC	7.93%
COc1ccc(C(CC(=O)N2CCN(c3ccccc3)CC2)c2c(O)cc(OC)cc2OC)cc1 (centres unmarked)	16.8%
O=C1C=C(c2cccc(OCc3ccccc3)c2)C[C@@H](c2ccc3c(c2)OCO3)C1	6.66%
Cc1c(N)cccc1-n1cnnn1	11.9%
CCCCOc1ccccc1C(=O)NNC(=S)NC(=O)c1ccccc1[N+](=O)[O-]	4.47%
CN(CC(=O)NCc1cccnc1)S(=O)(=O)c1ccc2c(c1)c(=O)n(C)c(=O)n2C	13.1%
COc1ccccc1NC(=O)CSc1nnc2ccc(-c3cccnc3)nn12	-3.49%
Cc1nc(N)c(C#N)c(-c2ccccc2Cl)c1C	-2.2%
Cc1cc(/C([O-])=C(/C(=S)Nc2ccccc2)[n+]2ccccc2)c(C)n1-c1ccccc1	9.1%
CSc1nnc(C)c(/C=C/NOCc2cccc(F)c2)n1	12.1%
Cc1cc2ncn(S(=O)(=O)N(C)C)c2cc1C	16.6%
CCc1ccc(-c2cn(C3CCCCC3)c(=S)[nH]2)cc1	7.85%
CCCCCOc1ccc(NC(=O)C(=O)NCCCn2ccnc2)cc1	2.16%
